The values that follow come from PubChem BioAssay AID1347073 (National Center for Advancing Translational Sciences (NCATS), 2019).

Among all 45,000 compounds or so, about 200 (0.44%) were called active. Another 7% or so got no clear call; they are omitted. The call rests on the fitted dose curve; in most records, active means well fitted activation curve with a large enough effect; inconclusive means small, poorly fitted or top-dose-only effect; inactive means no such curve, though single readings can be large or run the other way. Some of the results follow.

This experiment in a line: qHTS of TDP-43 Inhibitors: NCGC Sytravon Library Screen. Further: 0% is about no effect; nearly all actives have a fitted effect of over 55% in size. The settings on record: yeast TDP-43 toxicity rescue, BacTiter-Glo growth, 24 h; series mostly up to 46.1 µM; growth rescue (activation): at the top concentration. In outline:
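TDP-43-expressing yeast, pregrown in raffinose, seeded at OD600 0.02 in galactose medium with compound for 24 hr at 30 deg C. Growth read by BacTiter-Glo luminescence, so rescue of toxicity appears as activation.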
(In general: Quantitative high-throughput screening tests each substance at several concentrations.)
Regarding `CN(C)C(=O)C(OC(=O)c1ccc2c(c1)CCCC2)c1ccccc1` (stereo unspecified), the “growth rescue (activation)” value is inactive: 22.2%.

For the compound `COc1cc(/C=N/NC(=O)C[n+]2ccccc2)cc(OC)c1OC`, the “growth rescue (activation)” value is inactive: 16.3%. For `O=C(NCCO)Nc1ccc(Cl)cc1`, the “growth rescue (activation)” value was inactive: -9.31%. Turning to `COC(=O)C1=NNC2C(=O)N(c3ccc(C)cc3)C(=O)C12` (stereo unspecified), the “growth rescue (activation)” value was inactive: -6.22%. With `O=C(NCc1ccccc1)C1CCCN(c2nc3ccsc3c(=O)s2)C1` (stereo unspecified) the figure was inactive: 4.28%; with `Cc1ccc(CNC(=O)COC(=O)c2cccnc2Cl)cc1`, inactive: -9.84%. With `CC1(C(=O)Nc2cnc3ccccc3c2)CCN1Cc1ccc2ccccc2c1` (stereo unspecified) the figure was inactive: -1.31%. With `CN(C)CCCN(Cc1ccccc1)C(=S)Nc1ccc(OC(F)F)cc1` the figure was inactive: 9.55%. Consider `Cc1cccc(N2C(=O)C(O)=C(C(=O)c3cccs3)C2c2cccc(Oc3ccccc3)c2)n1` (stereo unspecified), for which the “growth rescue (activation)” value is inactive: -1.3%. With `CCc1ccc(C(=O)CSc2nc(C)cc(=O)[nH]2)cc1` the figure was inactive: 17.9%; with `COc1ccccc1NC(=O)CSc1n[nH]c(-c2cccnc2)n1`, inactive: -1.11%. To `COC(=O)C1(C(F)(F)F)C2C=CC(C2)N1S(=O)(=O)c1ccc(C)cc1` (stereo unspecified) belongs inactive: -1.37%; to `NC(=O)NC(CC(=O)N1CCc2ccccc2C1)c1ccc(Cl)cc1` (stereo unspecified), inactive: 7.4%. For `COCCNC(=O)C1(C)CCCN(Cc2cccc(OC(=O)c3ccccc3)c2)C1` (stereo unspecified), the “growth rescue (activation)” value is inactive: -0.778%. On to `COc1ccc(NC(C)=O)cc1S(=O)(=O)Nc1ccc(S(=O)(=O)N2CCCCC2)cc1`, for which the “growth rescue (activation)” value is inactive: 2.57%. With `c1ccc(CCNc2nc(-c3ccccn3)nc3ccccc23)cc1`, the “growth rescue (activation)” value was inactive: 14.2%. Consider `COc1ccc2c(c1)S(=O)(=O)c1ccccc1N2`, for which the “growth rescue (activation)” value was inactive: 17.6%. As for `CCOC(=O)/C=C/C(=O)OCC(=O)Nc1cccc(Cl)c1Cl`, the “growth rescue (activation)” value is inactive: 30%. `C=CCN(Cc1ccc(OC)c(OC)c1)C(=O)N1CCOCC1`: the “growth rescue (activation)” value is inactive: 8.28%. Regarding `COc1cccc(CSc2nc3cc4c(cc3cc2C)OCCO4)c1`, the “growth rescue (activation)” value is inactive: 19.9%. On to `Cc1cc(C)nc(/N=C(\N)Nc2ccc(S(=O)(=O)Nc3nccc(C)n3)cc2)n1`, for which the “growth rescue (activation)” value is inactive: -2.89%. With `Nc1nnnn1/N=C/c1ccc(N2CCCCC2)c([N+](=O)[O-])c1` the figure was inactive: 23.1%; with `CSc1oc(-c2ccco2)nc1S(=O)(=O)c1ccc(C)cc1`, inactive: 12.1%.

For `O=C(NC(=S)Nc1ccc(N2CCOCC2)c(Cl)c1)c1cccs1`, the “growth rescue (activation)” value was inactive: 6.27%. Regarding `O=C1NC2(CCC3(CC2)OCCO3)NN1c1ccc(Cl)cc1`, the “growth rescue (activation)” value was inactive: -5.21%. To `CC(C)c1ccc(CN2CCN(C(=O)CCl)CC2)cc1` belongs inactive: -6.4%; to `COc1ccc(O)c(/C=N/NC(=S)NCCc2ccccc2)c1`, inactive: 18%. With `O=C(O)c1ccccc1C(=O)Nc1ccc(Br)c2cccnc12` the figure was inactive: 2.23%. Regarding `COc1ccc(C(=O)NNC(=O)CCC(=O)Nc2ccc(C)cc2C)cc1`, the “growth rescue (activation)” value is inactive: 0.247%. Regarding `CN(C)S(=O)(=O)c1ccc(C(=O)Nc2ccn(C)n2)cc1`, the “growth rescue (activation)” value is inactive: -1.27%. For `COC(=O)CSc1n[nH]c(=S)s1`, the “growth rescue (activation)” value was inactive: -4.42%. As for `CCc1noc(C)c1C(=O)Nc1sc(C(=O)N(C)C)c(C)c1C#N`, the “growth rescue (activation)” value was inactive: 10.8%.

In the case of `CC1CN(C(=O)N(C)C)CCN1C(=O)N(C)C` (stereo unspecified), the “growth rescue (activation)” value is inactive: 2.13%. As to `O=C(Nc1cccc(S(=O)(=O)NC2=NCCC2)c1)c1ccccc1F`, the “growth rescue (activation)” value was inactive: 4.53%. For `C/C(N)=C(/C#N)C(=O)CSc1nnc(Nc2cccc(C)c2C)s1`, the “growth rescue (activation)” value was inactive: -19.1%. To `O=C(COc1ccc(Cl)cc1Cl)NN1C(=O)/C(=C\c2ccc(Cl)cc2)SC1=S` belongs inactive: -1.24%; to `O=C(CSc1c2c(nc3ccccc13)CCC2)N1CCCC1`, inactive: 12.7%. On to `CC1CC1c1ccc(/C=C(\C#N)C(=O)Nc2cc(Cl)ccc2Cl)o1` (stereo unspecified), for which the “growth rescue (activation)” value is inactive: 7.2%.

Take `CC1CCN(CC(=O)Nc2ccccc2Sc2ccccc2)CC1`: the “growth rescue (activation)” value was inactive: 5.82%. To `CCOc1ccc(NC(=O)COC(=O)CN2CCCCCC2=O)cc1` belongs inactive: 4.51%; to `O=C(NNC(=O)c1cccs1)c1ccc(F)cc1`, inactive: 24.2%; to `COc1ccc(-n2cc(CNCC3CC(=O)N(C4CC4)C3)c(-c3ccccc3Cl)n2)cc1` (stereo unspecified), inactive: 1.04%. As for `CC(=O)Nc1ccc(S(=O)(=O)n2cnc3cc(C)c(C)cc32)cc1`, the “growth rescue (activation)” value was inactive: 7.66%. With `O=C(CNc1cc(S(=O)(=O)N2CCOCC2)ccc1N1CCCC1)NCc1ccco1` the figure was inactive: 5.82%; with `Nc1nonc1C(=O)NCCN=Cc1ccccc1O`, inactive: 9.68%; with `COc1ccc(/C=C/c2cc(C(F)(F)F)on2)cc1`, inactive: -8.18%. In the case of `CCOC(=O)CC(=O)N/N=C/c1c(N)n(C)c(=O)n(C)c1=O`, the “growth rescue (activation)” value is inactive: 13.8%. `c1ccc(-n2cc(CNCCc3cscn3)c(-c3ccc4c(c3)OCO4)n2)cc1`: the “growth rescue (activation)” value is inactive: 27.2%. Regarding `CCc1nc2c(OCCC3CCCCC3)cccn2c1N(C)C(=O)COc1ccccc1`, the “growth rescue (activation)” value was inactive: -2.63%. Regarding `O=C(CC1C(=O)NCCN1CC1CCCCC1)NCCc1ccc(F)cc1` (stereo unspecified), the “growth rescue (activation)” value was inactive: -2.47%. Consider `O=C(C1CCCN1S(=O)(=O)c1ccc(Br)cc1)N1CCOCC1` (stereo unspecified), for which the “growth rescue (activation)” value is inactive: 6.36%. Take `Cc1cccc(C)c1NC(=O)Cn1nnc(S(=O)(=O)c2ccccc2)c1N`: the “growth rescue (activation)” value is inactive: 4.19%.

Consider `O=C(CSc1nnc2ccccn12)Nc1ccc2c(c1)OCO2`, for which the “growth rescue (activation)” value is inactive: 11.9%. To `O=C(NCC(=O)N1CCN(c2ccc([N+](=O)[O-])cc2)CC1)c1ccco1` belongs inactive: -4.86%. As for `N#CC(C#N)=C1C(=O)N(CCN2CCCCC2)c2ccccc21`, the “growth rescue (activation)” value was inactive: -11%. As to `O=C(Cn1ncc2c1-c1ccccc1OC2)N1CCN(Cc2ccccc2)CC1`, the “growth rescue (activation)” value is inactive: 22.2%.

As to `COc1ccc(CCN2CN(S(=O)(=O)c3ccccc3)c3nc4ccccc4nc32)cc1OC`, the “growth rescue (activation)” value is inactive: 33.9%. For `COc1ccc(N2C(=O)C(Cl)=C(Nc3ccccc3O)C2=O)cc1`, the “growth rescue (activation)” value was inactive: 4.24%.

`Cc1ccc(-n2nc(CN3CCOCC3)c(-c3ccccc3)c2N)cc1Cl`: the “growth rescue (activation)” value was inactive: 15.9%. To `S=C(NCc1ccco1)N1CCN(c2ccc(Cl)cc2)CC1` belongs inactive: 0.849%; to `O=C(NC1CCCC1)C(c1cccs1)N(C(=O)c1csnn1)c1ccccc1F` (stereo unspecified), inactive: 3.18%. For `COc1cccc(OC)c1C(=O)Oc1ccc2c(c1)O/C(=C\c1ccncc1)C2=O`, the “growth rescue (activation)” value was inactive: -10.2%. With `CC1=C/C(=N\S(=O)(=O)c2ccccc2)C(C(C)C)=CC1=O` the figure was inactive: -5.88%; with `CCOC(=O)NC(=O)C(=CNNc1ncc(C(F)(F)F)cc1Cl)C(=O)NC(=O)OCC`, inactive: -10.9%. For the compound `CS(=O)(=O)N(CC(=O)N1CCCC1)Cc1ccc(Cl)cc1`, the “growth rescue (activation)” value was inactive: -4.53%. On to `CCC(C)NC(=O)C1(NC(=O)Nc2ccccc2)CCCCC1` (stereo unspecified), for which the “growth rescue (activation)” value is inactive: -5.03%. Take `CC(=O)Nc1cc(NC(C)=O)cc(C(=O)N2CCCC3CCCCC32)c1` (stereo unspecified): the “growth rescue (activation)” value was inactive: 14.3%. As for `COCCNc1nc(Nc2ccc(C(=O)OC)cc2)c2sccc2n1`, the “growth rescue (activation)” value is inactive: 6.08%. In the case of `O=C(Nc1nnc([C@@H]2C[C@H](O)[C@@H](CO)O2)s1)Nc1cccc2c1CCCC2`, the “growth rescue (activation)” value was inactive: 8.51%. In the case of `CC(=O)c1ccc(N(C)C)cc1`, the “growth rescue (activation)” value was inactive: -10.6%. Turning to `CCN(CC)P(=O)(Nc1ccccc1Br)c1ccc(N(C)C)cc1NC(=O)c1ccco1` (stereo unspecified), the “growth rescue (activation)” value is inactive: -2.26%.
